The list shows a part of the results.

To fix the notation:
T1: UNK ZnF1-3 (human, UniProt Q9C0B0 31-174)
T1 sequence: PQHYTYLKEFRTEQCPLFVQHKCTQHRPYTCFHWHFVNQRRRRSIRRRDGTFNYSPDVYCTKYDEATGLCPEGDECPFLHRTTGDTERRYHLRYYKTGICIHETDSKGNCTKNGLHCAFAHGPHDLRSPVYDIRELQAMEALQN

B1: chr10:27431385:27431386:-_ENSG00000136758_ENST00000376016|hu_mus|FALSE|FALSE (ssRNA)
RNA: GGGAGUUCUACAGUCCGACGAUCACAAAUGCUUCGAAGAGUUUUUGGAUGUUGCCUGUACAAGCUAGAGGAACGUAAUGUACUGAACAUAUCUAAGUGACCAUAUUUAUUUUCAAAAAAGGACUGUGCCGAAAUAUGAGAUGUCAACAGAGGAUUGAGCAUCA
B2: chr3:76513020:76513021:+_ENSMUSG00000034098_ENSMUST00000038364|mus_hu|FALSE|FALSE (ssRNA)
RNA: GGGAGUUCUACAGUCCGACGAUCUCAUCAAUUCUCUUGCCAGUUUUCUUUUCCUAGGUGUUAAUUUCCCUAUAUAUGGUUUACUUUAGCAGACAAAAGUAAUGUUUCUUUUUUAAAACCGAAAGUUCCUGAUGAUGAAACAUUCAACAGAGGAUUGAGCAUCA
B3: chrX:48760955:48760956:-_ENSG00000102100_ENST00000376521|hu_hu|FALSE|FALSE (ssRNA)
RNA: GGGAGUUCUACAGUCCGACGAUCUAAAAAACAAACCAAAAAAUCAGAACAAAUUAAUCAAAAAUAAAGAUCCAAUGGCUCUAUUUACAUAUAGCAAAGACAGCCCAGGCAUCUUCCAUGCACACACACACCCCGCCCCGAUACCAACAGAGGAUUGAGCAUCA
B4: chr12:39756943:39756944:-_ENSG00000139116_ENST00000544797|hu_hu|motif|central (ssRNA)
RNA: GGGAGUUCUACAGUCCGACGAUCUGUUUGGCUAUUACCCCCGAGGGAAUCCUGUAGUAGUCUUGUUAGCUUGGAAUCUCGGUAGGGGACAUGUGUGGCCCUCUUGCUCUUGUCUCCCAAGGCACUUAUUACAUUGCCAAGUGCCAACAGAGGAUUGAGCAUCA
B5: chr5:68473423:68473424:+_ENSG00000134057_ENST00000507798|hu_hu|motif|central (ssRNA)
RNA: GGGAGUUCUACAGUCCGACGAUCCUCCAACUCAAGUUUACAAGUUACACCUUUGCCACAGCCUUGGCUAAAUCUUGAACGGGUGCAGAAUUCAGCUGUGGUAGAGUGCUGAUCUUAGCAUGCUUCGAUGUGGCAUACUUGUUCCAACAGAGGAUUGAGCAUCA
B6: 6765221_6770062_84_3pUTR_ENSMUSG00000073639_ENSMUST00000097680|mouse|control|control (ssRNA)
RNA: GGGAGUUCUACAGUCCGACGAUCUCAGGAGCAGGCUGGACUUGCCCACCCCACUCUCGCCGAUGAUGAGUAUCUUCAGAGUGGUCAGCACGUCCUCGUCCAUCCUGCGCCCGCUCUACUCCGACCCAGCCCCCGUGCCCGUCACAACAGAGGAUUGAGCAUCA
B7: chr9:113828744:113828745:+_ENSMUSG00000033392_ENSMUST00000111838|mus_hu|FALSE|FALSE (ssRNA)
RNA: GGGAGUUCUACAGUCCGACGAUCAAGUAAUGUUAUGUACAGUUUUAUUGCCAGUAUAUGCACAACAGUAAGCAUAGAACUAUAAAUACACAAUGUAAUUAACAGUAGAAAACAAAAUUGUUACAGGUAGAGGGAGAGGAUAUACAACAGAGGAUUGAGCAUCA
B8: chr2:9724522:9724523:-_ENSG00000134308_ENST00000238081|hu_mus|motif|central (ssRNA)
RNA: GGGAGUUCUACAGUCCGACGAUCUUUUUUGGGACUACAGUCAAUGAUUAGCAAACACACAAUAUAGUGGUCCAACUCUCGGAAGAACAAUCACUGGACAAACCGGAUACCCUCUCCCAUGUGCACAACUCUGCAUGGAAAAGUCAACAGAGGAUUGAGCAUCA
B9: 30344605_30344725_68_3pUTR_ENSG00000152219_ENST00000282032|human|control|control (ssRNA)
RNA: GGGAGUUCUACAGUCCGACGAUCGGCUUCGGGCAAGAUGCGAGUCCACACAGGCCACACUCGACCGACCGCUUCCCAGCCAGUCCCCGCGCUACCACUGAGAGGACGGCAAGCGCGGGCUAGAGGAGCUCAACGCCACCACAACAACAGAGGAUUGAGCAUCA
B10: chr12:105536279:105536280:+_ENSG00000136051_ENST00000332180|hu_mus|hu_hu_hu_mus_True|38_48 (ssRNA)
RNA: GGGAGUUCUACAGUCCGACGAUCAGCACUGAACAUGUAAUGUAAUCUGGCUGCAUCGACAGCAUUUUCAUAUACAUCAUCUAAAUAAAUUGGGAAGACAGCUCGAUGCCAGUAUAAAAAACAGCAGUCACACUGUGCUUGGACCAACAGAGGAUUGAGCAUCA
B11: chr5:128440902:128440903:+_ENSG00000066583_ENST00000173527|hu_mus|hu_hu_hu_mus_True|8_68 (ssRNA)
RNA: GGGAGUUCUACAGUCCGACGAUCUUGAACGGUGCUGCCAAGUCCUUUGGGGUAUUGUUCCGUUAUGAUAACAGGAAUCCCUAAGAUCCGAGCUCCUUGCAACAGUCUCUGUCCCACACUAAUGAUGUCCCCAAAAUAUUUGAUCAACAGAGGAUUGAGCAUCA
B12: chr5:141111964:141111965:-_ENSMUSG00000036565_ENSMUST00000042661|mus_hu|FALSE|FALSE (ssRNA)
RNA: GGGAGUUCUACAGUCCGACGAUCGUGCUCCUCGCUCUUGCGCCGCCGGCAGCACAGCCAGAAGGAGUAGAAGAGCAGGAAGAGGAGGUCCAGGGCGAGGCAGGCCAGGGCGGCGGCCCCCAGGAGCAGCAGGGCCUGCUGGUACAACAGAGGAUUGAGCAUCA
B13: 41621242_41621362_836_CDS_ENSG00000064042_ENST00000508501|human|control|control (ssRNA)
RNA: GGGAGUUCUACAGUCCGACGAUCGACGUAGGCCGUCUGAUUGCUUUUGUUCGGGAGGUACUGGUUAAAAGGCACUGCUGAUUUCGGCUCACCAUGGGAAGUCCGCCGUGCAGACAUGUCAUCCUUCUUCACAUCUGGCAGCUUCAACAGAGGAUUGAGCAUCA
B14: chr5:138606049:138606050:-_ENSMUSG00000029730_ENSMUST00000000505|mus_hu|FALSE|FALSE (ssRNA)
RNA: GGGAGUUCUACAGUCCGACGAUCGAGCUCCUCAUAUUCAUCCAGAGCCGCCUGGAACUGGGCGGGUGUGAAGCCACGAGAUACACAGCGCUGCUCUGCCUCAGAGAACCGGACACUUCGGCCCCCUGAGACCAGUUCACGGACCAACAGAGGAUUGAGCAUCA
B15: chr17:88379672:88379673:+_ENSMUSG00000005370_ENSMUST00000005503|mus_mus|FALSE|FALSE (ssRNA)
RNA: GGGAGUUCUACAGUCCGACGAUCUCCCUUUUGGGCUUCCUUUGACUUUGAACCUGUAUAUGGCUUUAACAUCCUUUUGCUAACCCAGCCCCUUGUUGGGCUGUCAUCAAAGAACUGUACAUGAACACGGACAGAUUUCCCUUUCAACAGAGGAUUGAGCAUCA
B16: chr11:93987321:93987322:+_ENSMUSG00000020859_ENSMUST00000103168|mus_hu|motif|central (ssRNA)
RNA: GGGAGUUCUACAGUCCGACGAUCUACAAAGUUACAUUCUGAACCCCAGGGAUUCCAUAAUAGAAAUAAAUACUGAAAUAACGGCAUUGCUAAAUGAGCUCUUUGCUCAUAGAAAUGAAGCUCAGCCUCUAAGAGACAGCAAGUCAACAGAGGAUUGAGCAUCA
B17: chr1:55135153:55135154:-_ENSMUSG00000025980_ENSMUST00000027123|mus_hu|FALSE|FALSE (ssRNA)
RNA: GGGAGUUCUACAGUCCGACGAUCUUCAUUAAUAAAGGUAAAGCACUAGUCUAGGAGUUAGAACAUGCCACCUCCCAUACCACCUCCCAUUCCACCCAUUGCACCCAUUCCAGGGUCCUUCUCUUCUUUAGGAAUUUCUGUGACCAACAGAGGAUUGAGCAUCA
B18: chr4:107087291:107087292:+_ENSMUSG00000028614_ENSMUST00000139560|mus_hu|FALSE|FALSE (ssRNA)
RNA: GGGAGUUCUACAGUCCGACGAUCUUUUUAAUCUUGUAACUUAAGAACUGAGUUUUUCCACAUUCCUUUAUAUAGAGUUAGCAUCUGUAAACUGAGACCCUUUUUUGGGUAAUCAUACAAAUUUAAUUUGUCCCUGGAAACAAACAACAGAGGAUUGAGCAUCA
B19: chr6:124414581:124414582:-_ENSMUSG00000008153_ENSMUST00000008297|mus_mus|FALSE|FALSE (ssRNA)
RNA: GGGAGUUCUACAGUCCGACGAUCGCGGUGCUAAGCACGCCAGGCCAGGCGUUCCUAUCCCCUGGGAGCCUCAAGCCUGCUAAUGCCACCUUGGGGGAGAAAUGCAGAGACUACGAGGGAAGGGCAGGGGGACAAGAUCGGAAACAACAGAGGAUUGAGCAUCA
B20: chr3:10015032:10015033:+_ENSMUSG00000027533_ENSMUST00000029046|mus_hu|FALSE|FALSE (ssRNA)
RNA: GGGAGUUCUACAGUCCGACGAUCGUUUUUACCAUCACAAGUGAUGAUACAAUCUGGCUUGGCCAUUGCGCCCAUUUUUCGCAAAGCUAUUCCCACUCCUAGCUCCUUCAUGUAUUCAUCAAAGCCUUUGCUGUCCACCAGGCGCAACAGAGGAUUGAGCAUCA
B21: 16557741_16557861_4169_CDS_ENSMUSG00000070808_ENSMUST00000094821|mouse|control|control (ssRNA)
RNA: GGGAGUUCUACAGUCCGACGAUCCGCCUGGGUAGCAGGAGGGAGUGGGGGCGGAGCUGGGUGUGGCGGAGGCUCCGCCCCUUUCGCUGGGGUUGGAGCCGGCAAGGGCUGAUGCACAGGAUCCAGUGCAGUGUUGUGCACCACCAACAGAGGAUUGAGCAUCA
B22: 24661885_24671262_2684_CDS_ENSMUSG00000036893_ENSMUST00000102938|mouse|control|control (ssRNA)
RNA: GGGAGUUCUACAGUCCGACGAUCCUCGUUGUCCCGGAUGUUGAUGUCAGAGCCCUUAGACAGCAGCAGCUUCACCAGCUCCACGUGCUUGUACUCAGUGGCCCAGAUCAUAGGUGUCCAUCCACCGUCAUCCUGGCAGUUGACCAACAGAGGAUUGAGCAUCA

The target of this assay is T1, UNK ZnF1-3. Nature of the assay: nsRBNS (natural sequence RNA bind-n-seq); RBNS binding buffer (assumed for nsRBNS): 25 mM Tris pH 7.5, 150 mM KCl, 3 mM MgCl2, 0.01% Triton X-100, 500 ug/ml BSA, 20 U/ml SUPERase-In, 4 C; UNK is unkempt and MSI1 is Musashi-1; names of the RNAs are library labels; protein concentration not given here; high values mean tight binding.
Molecule B1 yielded a binding signal of 1.57 enrichment R.
The same measure for B2: 0.604 enrichment R; for B3: 2.23 enrichment R.
The same measure for B4: 0.484 enrichment R.
The same measure for B5: 0.412 enrichment R.
In the case of B6, the binding signal amounted to 0.723 enrichment R.
As to B7, the binding signal amounted to 1.12 enrichment R.
The same measure for B8: 1.19 enrichment R.
The same measure for B9: 0.984 enrichment R; for B10: 2.26 enrichment R; for B11: 0.849 enrichment R.
The same measure for B12: 1.57 enrichment R; for B13: 0.65 enrichment R; for B14: 0.806 enrichment R.
B15 gave a binding signal of 0.547 enrichment R.
The same measure for B16: 1.28 enrichment R; for B17: 1.13 enrichment R.
The same measure for B18: 0.707 enrichment R; for B19: 1.19 enrichment R; for B20: 0.787 enrichment R.
The same measure for B21: 0.722 enrichment R; for B22: 1.08 enrichment R.

Source of the values: PMC12136788.
